{"source": "the supplement of paper PMC3334620", "note": "The full ranking holds about 33,000 sequences; the median of “E-score (-0.5 to 0.5)” is about -0.012, and the highest 2% start at about 0.27. The list shows a part of the results.", "data": [{"target": "T1, Vhr1 (UniProt P40522)", "T1 sequence": "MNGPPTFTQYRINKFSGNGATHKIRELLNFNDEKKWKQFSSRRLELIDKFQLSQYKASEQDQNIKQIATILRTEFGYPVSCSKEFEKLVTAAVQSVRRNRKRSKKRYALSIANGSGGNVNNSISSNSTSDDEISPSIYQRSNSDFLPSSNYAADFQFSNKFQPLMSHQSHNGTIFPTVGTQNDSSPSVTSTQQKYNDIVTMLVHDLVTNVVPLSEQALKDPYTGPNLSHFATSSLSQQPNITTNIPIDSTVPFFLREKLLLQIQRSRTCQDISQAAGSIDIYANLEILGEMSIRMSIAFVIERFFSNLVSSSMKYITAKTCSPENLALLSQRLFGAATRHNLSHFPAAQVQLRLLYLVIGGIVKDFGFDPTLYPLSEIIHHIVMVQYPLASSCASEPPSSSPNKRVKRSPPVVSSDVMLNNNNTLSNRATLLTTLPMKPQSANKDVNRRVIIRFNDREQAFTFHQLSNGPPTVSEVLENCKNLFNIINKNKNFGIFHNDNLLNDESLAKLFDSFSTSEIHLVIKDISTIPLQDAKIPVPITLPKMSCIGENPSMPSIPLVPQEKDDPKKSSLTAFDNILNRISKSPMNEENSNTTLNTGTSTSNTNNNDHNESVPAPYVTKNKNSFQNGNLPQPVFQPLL", "assay": "PBM E-score (8-mer binding enrichment) (E-score (-0.5 to 0.5)); higher = stronger / more preferred TF binding; most listed sequences are background and not binding sites", "conditions": "protein concentration: 200 nM; construct: GST-full length", "how_it_was_run": "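Full-length yeast transcription factors or their DNA-binding domains, GST-tagged and expressed with PURExpress, were applied at about 100-200 nM to universal all-10-mer Agilent arrays. These arrays had been made double-stranded by primer extension on fresh or once-stripped slides. Detection used fluorescent anti-GST, normalisation used masliner, and E-scores for ungapped eight-base words pooled with reverse complements came from the Universal PBM Analysis Suite.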", "values": [{"sequence": "CCCATAAA", "PBM E-score": -0.0702}, {"sequence": "ACTTTTAC", "PBM E-score": -0.038}, {"sequence": "GTCAGAGA", "PBM E-score": 0.00426}, {"sequence": "TTATGGAA", "PBM E-score": -0.114}, {"sequence": "ATGCAAAC", "PBM E-score": -0.0414}, {"sequence": "ATTGACGA", "PBM E-score": 0.0386}, {"sequence": "TACGCTGA", "PBM E-score": 0.0554}, {"sequence": "AGCACGGC", "PBM E-score": -0.0184}, {"sequence": "ACAGGAGT", "PBM E-score": 0.0766}, {"sequence": "GAGTCCCC", "PBM E-score": 0.201}, {"sequence": "ATCCAATC", "PBM E-score": 0.0693}, {"sequence": "ACTTAGAA", "PBM E-score": -0.237}, {"sequence": "AGCCCCGA", "PBM E-score": -0.108}, {"sequence": "ATCATAAG", "PBM E-score": 0.00259}, {"sequence": "TAGGCCAA", "PBM E-score": -0.18}, {"sequence": "GAGCAGGC", "PBM E-score": 0.0109}, {"sequence": "AAAGTATT", "PBM E-score": 0.0561}, {"sequence": "CGGTGTAA", "PBM E-score": 0.00145}, {"sequence": "CACGCGCC", "PBM E-score": 0.122}, {"sequence": "GGTATAGA", "PBM E-score": -0.205}, {"sequence": "GTGGGTAA", "PBM E-score": 0.138}, {"sequence": "ACTGAAGT", "PBM E-score": -0.0457}, {"sequence": "GACAGGCA", "PBM E-score": -0.0241}, {"sequence": "ATTCGATC", "PBM E-score": 0.0807}, {"sequence": "GATGCTTA", "PBM E-score": -0.217}, {"sequence": "AGTCAACC", "PBM E-score": 0.373}, {"sequence": "GGCTGCAC", "PBM E-score": -0.0516}, {"sequence": "GGCATTAA", "PBM E-score": -0.214}, {"sequence": "AAGTATCT", "PBM E-score": -0.184}, {"sequence": "GCGCAGAA", "PBM E-score": 0.0192}, {"sequence": "CGTAGGAG", "PBM E-score": -0.143}, {"sequence": "ACTGGTCC", "PBM E-score": -0.00045}, {"sequence": "CACGTCAG", "PBM E-score": 0.0341}, {"sequence": "ATAACTAA", "PBM E-score": 0.0665}, {"sequence": "ATGTTTAC", "PBM E-score": 0.152}, {"sequence": "AAACCTTG", "PBM E-score": 0.068}, {"sequence": "TCCATCAA", "PBM E-score": 0.198}, {"sequence": "GGAGGTGA", "PBM E-score": 0.165}, {"sequence": "GAACAGAC", "PBM E-score": 0.161}, {"sequence": "GTTGGGAA", "PBM E-score": -0.111}, {"sequence": "GGGATATA", "PBM E-score": 0.189}, {"sequence": "AGCCGGGC", "PBM E-score": -0.114}, {"sequence": "CGCTCAAC", "PBM E-score": -0.0713}, {"sequence": "ACATTCGA", "PBM E-score": 0.0492}, {"sequence": "ATAATAAT", "PBM E-score": -0.0529}, {"sequence": "AGCAGGAT", "PBM E-score": 0.111}, {"sequence": "ACCCCCGC", "PBM E-score": -0.0906}, {"sequence": "TACAGTGA", "PBM E-score": 0.0892}, {"sequence": "AGCAAGGC", "PBM E-score": 0.0254}, {"sequence": "CCAATCGC", "PBM E-score": 0.0862}, {"sequence": "ACCCTTGG", "PBM E-score": -0.128}, {"sequence": "TCCAGCCA", "PBM E-score": -0.153}, {"sequence": "TGCAGGCA", "PBM E-score": -0.141}, {"sequence": "AGATGCTA", "PBM E-score": 0.0826}, {"sequence": "ACACGTGG", "PBM E-score": 0.1}, {"sequence": "AAATGCAT", "PBM E-score": 0.0418}, {"sequence": "ATGACAGG", "PBM E-score": 0.0147}, {"sequence": "CTGTCGGA", "PBM E-score": 0.0147}, {"sequence": "GGCATAAC", "PBM E-score": -0.164}, {"sequence": "AACATGGG", "PBM E-score": 0.269}, {"sequence": "ACAAGTCA", "PBM E-score": 0.174}, {"sequence": "CGAAACAC", "PBM E-score": 0.0131}, {"sequence": "GACTTCCC", "PBM E-score": -0.0666}, {"sequence": "GCTCGACA", "PBM E-score": -0.151}, {"sequence": "CAGGCCTC", "PBM E-score": -0.225}, {"sequence": "CACGATTC", "PBM E-score": 0.158}, {"sequence": "AACAAGGC", "PBM E-score": 0.127}, {"sequence": "CGCATAAC", "PBM E-score": -0.102}, {"sequence": "ATTACGTC", "PBM E-score": -0.0362}, {"sequence": "AACTTGCT", "PBM E-score": -0.062}, {"sequence": "TATTCCGA", "PBM E-score": -0.00686}, {"sequence": "ACCTGGAG", "PBM E-score": 0.0423}, {"sequence": "TACTGCAA", "PBM E-score": -0.0559}, {"sequence": "ATCACGGC", "PBM E-score": 0.0841}, {"sequence": "GTTCCTGA", "PBM E-score": -0.0981}, {"sequence": "AGTGACGC", "PBM E-score": -0.138}, {"sequence": "AATATGAT", "PBM E-score": 0.264}, {"sequence": "CGCTTTTA", "PBM E-score": -0.178}, {"sequence": "ACGATCGA", "PBM E-score": -0.0296}, {"sequence": "AGTGCAGC", "PBM E-score": -0.0479}, {"sequence": "AACCACTA", "PBM E-score": -0.105}, {"sequence": "GCTTAACC", "PBM E-score": -0.159}, {"sequence": "GGACGGGA", "PBM E-score": -0.214}, {"sequence": "GAGTAAGA", "PBM E-score": 0.0795}, {"sequence": "CCGTCTCG", "PBM E-score": 0.00454}, {"sequence": "GTGCCGGA", "PBM E-score": 0.165}, {"sequence": "CTAGAGGC", "PBM E-score": -0.341}, {"sequence": "AACACCTC", "PBM E-score": -0.217}, {"sequence": "CGCATCGA", "PBM E-score": 0.0906}, {"sequence": "AGCCAGCT", "PBM E-score": -0.0236}, {"sequence": "TATCACCA", "PBM E-score": 0.0885}, {"sequence": "GGTACAAA", "PBM E-score": -0.136}, {"sequence": "CTCGATGA", "PBM E-score": 0.128}, {"sequence": "AATTGCCA", "PBM E-score": -0.0675}, {"sequence": "CCATAGCG", "PBM E-score": -0.117}, {"sequence": "ATTGTCCG", "PBM E-score": 0.0939}, {"sequence": "CATGAGCC", "PBM E-score": 0.159}, {"sequence": "AATCACTA", "PBM E-score": 0.267}, {"sequence": "ATTGGGGA", "PBM E-score": 0.108}, {"sequence": "CGCAGTAG", "PBM E-score": -0.029}, {"sequence": "AGCCTTCA", "PBM E-score": -0.116}, {"sequence": "CTAGTGAC", "PBM E-score": 0.109}, {"sequence": "TGCAGCCA", "PBM E-score": 0.0682}, {"sequence": "CTCGCCCA", "PBM E-score": 0.0647}, {"sequence": "TAAAGCAA", "PBM E-score": -0.0681}, {"sequence": "CATTGCAA", "PBM E-score": -0.114}, {"sequence": "AATGCCGT", "PBM E-score": 0.0908}, {"sequence": "AGGACGAA", "PBM E-score": -0.106}, {"sequence": "CAGACAGG", "PBM E-score": -0.0919}, {"sequence": "GGCGATCA", "PBM E-score": -0.0343}]}]}
